“And” between values parts separate entries of the source, which are not always exact repeats. Equal values may be shown once. The campaign covered roughly 420,000 compounds. About 50,000 (12%) were called active. This list was built around the results that the source calls inconclusive (neither active nor inactive); the mix of calls is not that of the screen. Calls follow the shape of the dose curve; as a rule, active = well fitted inhibition curve with a large enough effect; inconclusive = small, poorly fitted or top-dose-only effect; inactive = flat fitted curve, though single readings scatter. Potencies of inconclusive entries are left out as doubtful fits.
Experiment: qHTS for Inhibitors of human tyrosyl-DNA phosphodiesterase 1 (TDP1): qHTS in cells in presence of CPT; also: nearly all actives have a fitted effect of over 55% in size
Details: chicken DT40 Tdp1-/-;hTDP1 cells + 20 nM CPT, ATP luminescence, 48 h; series mostly up to 46.2 µM
Outline: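 Chicken DT40 Tdp1-/- cells complemented with human TDP1, 400 cells/well, exposed to compounds plus 20 nM camptothecin for at least 48 h at 37 C; viability read as ATP content by CellTiter-Glo luminescence.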
Potency is read from the fitted curve at half-maximal effect; tags tell the direction and shape of the fitted curve.

Compound	Potency
Cc1ccc(CCNC(=O)C2CC(=O)N(CCc3ccccc3)C2)cc1 (configuration not stated)	inactive
CN(Cc1ccon1)Cc1cn(C)nc1-c1ccc(Oc2ccccc2)cc1	inconclusive [inhibitor, single point]
O=C(COC(=O)c1ccccc1C(=O)c1ccc(Cl)cc1)NCC1CCCO1 (configuration not stated)	inactive
NC(Cc1ccc(F)cc1)c1csc(Nc2ccc(C(F)(F)F)cn2)n1 (configuration not stated)	active: 13 µM
CC(NC(=O)/C(C#N)=C/c1cn(-c2ccccc2)nc1-c1ccc(F)cc1)c1ccccc1 (configuration not stated)	inactive
Cc1ccccc1C(=O)/C(C#N)=N/Nc1c(C)n(C)n(-c2ccccc2)c1=O	active: 4.61 µM
Cc1cccc(N2CCN(C(=O)Cn3ncc4c3-c3ccccc3OC4)CC2)c1C	active: 18.4 µM
CCOc1ccc(Nc2ncnc3c2nc2n3CCCCC2)cc1	inconclusive [inhibitor, single point]
FC(F)(F)c1nc(N2CCCC2)ncc1-c1nnnn1-c1ccccc1	active: 16.4 µM
O=C(c1cc(Br)c(Br)s1)N1CCN(c2ccccn2)CC1	inconclusive [inhibitor, single point]
COc1cc2cc(C(c3nnnn3C3CCCC3)N3CCc4ccccc43)c(=O)[nH]c2cc1OC (configuration not stated)	inconclusive [inhibitor, single point]
Cc1ccccc1-n1nc(-c2cccnc2)cc1C(=O)N/N=C/c1ccncc1	inconclusive [inhibitor, single point]
CC(C)c1cc(=O)oc2c3c4c(cc12)CCCN4CCC3	active: 16.4 µM
CCOC(=O)c1c(-c2ccccc2)csc1NC(=O)c1ccc(S(=O)(=O)N2CCOCC2)cc1	active: 5.8 µM
CCCn1nc(C(=O)OCC(=O)Nc2cccc(S(N)(=O)=O)c2)c2ccccc2c1=O	inactive
O=S(=O)(NC1CCSc2ccccc21)c1ccccc1 (configuration not stated)	inactive
COc1nccnc1NS(=O)(=O)c1ccc(NC(=S)NC(=O)c2ccc(F)cc2)cc1	inactive
CSc1ccccc1NC(=O)CN(C)CC(=O)NCc1ccccc1	inactive
COc1ccc(Cl)cc1-c1cc(C(=O)NCc2ccc(C(F)(F)F)cc2)[nH]n1	active: 4.61 µM
CSCC[C@H](NC(=O)c1ccc(Cl)c(S(=O)(=O)N2CCCC2)c1)c1nc2ccccc2[nH]1	inconclusive [inhibitor, partial curve]
Cc1cccc(NC(=S)N/N=C/c2ccc3c(c2)OCO3)c1	inconclusive [inhibitor, single point]
CCOC(=O)c1c(NC(=O)c2cc(C)on2)c2cc([N+](=O)[O-])ccc2n1C	inactive
COc1cccc(-c2nnc(NC(=O)CCS(=O)(=O)c3ccc(F)cc3)o2)c1	inconclusive [inhibitor, single point]
O=C(Nc1nnc(S(=O)(=O)N2CCCCCC2)s1)c1cccc(Br)c1	active: 5.8 µM and active: 25.9 µM

Compound	Potency
CCOc1cc(/C=N/Nc2nnc(C)n2N)ccc1OC(C)=O	inconclusive [inhibitor, single point]
Cc1cc(CC(=O)O)c(C)n1-c1ccc(Cl)cc1	inactive
Cc1ccnc(NS(=O)(=O)c2ccc(NC(=O)CCc3ccccc3)cc2)n1	inactive
C=CCC1(CC=C)CCCN1C(=O)c1cc(COc2cccc(OC)c2)on1	inconclusive [inhibitor, single point]
COc1cccc(/C=C/C(=O)Nc2ccc3[nH]c(=O)[nH]c3c2)c1	inactive
Cn1c(=NC(=O)c2ccccc2[N+](=O)[O-])sc2cccc(F)c21	inactive
Cn1cnc(S(=O)(=O)N2CCC(C(=O)Nc3ccc(C#N)cc3)CC2)c1	inactive
C=CCn1c(C(c2ccccc2)c2ccccc2)n[nH]c1=S	inactive
Clc1cccc(N2CCN(c3c4c(nc5nncn35)CCC4)CC2)c1	active: 18.4 µM
Cc1ccc([C@H]2C[C@@H](n3cc(C4CC4)nn3)[C@H](O)CN2C(=O)C2CCCCC2)cc1	inactive
O=c1[nH]c(Nc2ccccc2)cc2cc(Br)ccc12	inconclusive [inhibitor, single point]
CC1(C)CC2CC(C)(CN2C(=O)C23CCC(C)(C(=O)C2)C3(C)C)C1 (configuration not stated)	inconclusive [inhibitor, single point]
N#Cc1ccccc1Cn1c(SCC(=O)Nc2ccc(F)cc2)nc2ccccc21	inconclusive [inhibitor, single point]
Fc1cc2[nH]c(=S)[nH]c2c(Br)c1N1CCSCC1	inconclusive [inhibitor, single point]
CCc1ccc2oc(=O)cc(CN(C)Cc3ccccc3)c2c1	inconclusive [inhibitor, partial curve]
CCOc1ccc(C(=O)Nc2onc3c2CCCC3)cc1	inconclusive [inhibitor, single point]
CCCn1c(SCC(=O)N2CCCc3ccccc32)nc2c1c(=O)n(C)c(=O)n2C	inconclusive [inhibitor, single point]
O=C(COc1ccccc1)Nc1ccc2nc(SCC(=O)N3CCc4ccccc43)sc2c1	inconclusive [inhibitor, partial curve]
Cn1c(C(=O)NCCN2CCOCC2)cc2c(=O)n(C)c3ccccc3c21	inconclusive [inhibitor, single point]
CC1CCCCC1NC(=O)CCCCCn1c(=S)[nH]c2ccccc2c1=O (configuration not stated)	inconclusive [inhibitor, single point]
Cc1ccc(CNc2ccc3c(c2)ncn3C(C)(C)C)cc1	inconclusive [inhibitor, single point]
Cc1ccc2[nH]c(C(=O)O)c(-c3ccccc3)c2c1	inactive
CC(=O)c1ccc(NC(=O)c2nc(-c3ccccc3)n(-c3ccccc3Cl)n2)cc1	active: 25.9 µM
CC(=O)c1c[nH]c(C(=O)Nc2ccc(N3CCCCCC3)cc2)c1	inconclusive [inhibitor, single point]

Compound	Potency
COc1ccc(NC(=O)Nc2c(O)ccc3ccccc23)cc1	inconclusive [inhibitor, single point]
COc1cccc(-c2cc(C(=O)Nc3ccccc3)c3ccccc3n2)c1	inconclusive [inhibitor, single point]
Cc1ccc(NC(=O)C2=CC(c3ccc(C)cc3)=NS(=O)(=O)N2C)cc1	inconclusive [inhibitor, partial curve, poor fit]
S=C(NCc1ccc(Cl)cc1Cl)NC1CCCCC1	inconclusive [inhibitor, single point]
c1ccc(-c2cnnn2-c2ccccc2)cc1	inactive
O=C(Nc1cccc(S(=O)(=O)N2CCCCCC2)c1)c1ccc(=O)[nH]c1	inconclusive [inhibitor, single point]
O=c1oc(-c2ccccc2)nc2sc3c(c12)CCC3	inactive
Cc1ccc(CC(=O)Nc2ccc(F)c([N+](=O)[O-])c2)cc1	inconclusive [inhibitor, single point]
O=C(N/N=C\c1cccnc1)c1ccc(Br)s1	inconclusive [inhibitor, partial curve]
CC(=O)c1ccccc1N(C(=O)c1ccco1)C(C(=O)NC1CCCC1)c1ccc(N2CCOCC2)cc1 (configuration not stated)	inactive
CC(C)C[C@H]1CN=C(Nc2ccccc2)N1CC1CCC1	inconclusive [inhibitor, single point]
Cc1noc(C)c1C(=O)N1CCC[C@@]2(CCN(C(=O)Nc3ccccc3)C2)C1	inconclusive [inhibitor, single point]
CCCCCCOC(=O)Nc1ccc(S(=O)(=O)Nc2cccc([N+](=O)[O-])c2)cc1	inconclusive [inhibitor, partial curve]
COc1ccc2[nH]c3c(c2c1)CCN1C(=O)C(CC(=O)NCc2ccco2)C[C@H](C(=O)N(C(C)C)C(C)C)[C@@]31C (some centres not stated)	inconclusive [inhibitor, single point]
COC(=O)c1ccc(N2C(=O)CC(N3CCN(c4ccccc4)CC3)C2=O)cc1 (configuration not stated)	inconclusive [inhibitor, single point]
Cc1cccc(NC(=O)CSCC(=O)Nc2cccc(S(=O)(=O)N3CCCCCC3)c2)c1	inactive
CC1CN(S(=O)(=O)c2cc(C(=O)N(C)Cc3cccs3)ccc2Cl)CC(C)O1 (configuration not stated)	inconclusive [inhibitor, single point]
CC(C)(C)n1nnnc1C(c1cccnc1)N(Cc1ccccc1)Cc1ccco1 (configuration not stated)	inconclusive [inhibitor, single point]
CC(C)N(C)c1ncnc2c1ncn2[C@H]1CN(Cc2ccc(-c3ccccc3)cc2)C[C@@H](CO)O1	active: 7.31 µM
COc1ccccc1-c1c(C)nn2c(N3CCN(Cc4ccccc4)CC3)cc(C)nc12	inconclusive [inhibitor, single point]
CC(=O)c1ccc(-c2cnc3c(NC=O)cc(-c4ccc(N5CCN(C)CC5)cc4)cn23)cc1	inconclusive [inhibitor, single point]
CC12CN(C(=O)c3ccc([N+](=O)[O-])cc3)CC(C)(CN(C(=O)c3ccc([N+](=O)[O-])cc3)C1)C2=O	inactive
CCOc1ccc(NC(=O)COC(=O)Cc2ccsc2)cc1	inactive
CC(C)Nc1nc(NCc2ccccc2)c2sccc2n1	active: 9.2 µM

From PubChem BioAssay AID686979 (National Center for Advancing Translational Sciences (NCATS), 2013)
